# ± gives the standard deviation. Whole data set: some 3,700 sequences, median “pre-steady-state target cleavage rate” near 0.02, cut for the highest 2% near 0.23. The list shows a part of the results, in another mix than the full data.
# System: MILI (PIWIL2) piRISC loaded with Kctd7 piRNA (26 nt)
# Assay: pre-steady-state target cleavage rate (min^-1); MIWI and MILI are mouse PIWI proteins and EfPiwi is from a freshwater sponge; tags in brackets are library labels; higher = faster piRNA-guided slicing of the target
# Settings: guide: Kctd7 piRNA 5'p-UGUUAAUCUCUCAGAGAAGGUGACAG; auxiliary factor: 500 nM mouse GTSF1
# Outline: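 Cleave-'n-Seq measured uncleaved targets by sequencing after a transcribed, DNA-blocked target RNA library […] was mixed with 1 nM active affinity-purified piRISC holding one synthetic guide, with or without 500 nM GTSF1 partner protein, at 33 °C in HEPES–potassium acetate buffer for 0–8 or 0–960 min. Counts were normalised to depth and to weakly complementary targets, three trials were pooled, and k3 was capped at 0.0001 min^-1. A burst-and-steady-state fit gave the pre-steady-state cleavage rate.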
# 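Note: 1 nM active piRISC with 0.1 nM target library at 33 °C single turnover.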
row,Sequence,pre-steady-state target cleavage rate
1,UAGUGACAGUCCUUAUCUGAGAGAUUAACA,0.0438 ± 0.0075
2,UAGUGAGUCAGCCUUCUCUGAGAGAUUAACA,0.0842 ± 0.016
3,UAGUCUGUCACCUUCUCUGAGGAGAUUAACA,0.0158 ± 0.0053
4,UAGUCUGUCACGUUCUCAGAGAGAUUAACA,0.102 ± 0.0078
5,UAGUGACUCUGCUUCUCUGAGAGAUUAUGA,0.0044 ± 0.0029
6,UAGUGAGUCACCUUCUCUCAGACAUUAACA,0.0331 ± 0.011
7,UAGUGACAGUCCUUCUCUGAGAGUAUUAACA,0.0569 ± 0.0088
8,UAGUCUGUCACGAUCUCUGAGAGAUUAAGA,0.025 ± 0.005
9,UAGUGUGUCAGCAUCUCUGAGAGAUUAACA,0.106 ± 0.01
10,UAGUGAGUCACCUUGUCAGAGAGAUUAACA,0.0464 ± 0.0079
11,UAGUGACAGUGCUUCUCUGAGAGAUUCACA,0.00539 ± 0.004
12,UAGUGACACACCUUCUCUGAGAGAUUCACA,0.258 ± 0.057
13,UAGUGACUCACUUCUCUGAGAGAUUAACA,0.0928 ± 0.0091
14,UAGUGACUCACCUUCUCUGAUGAGAUUAACA,0.00488 ± 0.0046
15,UAGUCUGUCACCUUCUCUGAGAGAUAUAACA,0.235 ± 0.03
16,UAGUCUGUCACCUUCUUGAGAGAUUAACA,0.07 ± 0.023
17,UAGUGACAGUCCAUGUCUGAGAGAUUAACA,0.0217 ± 0.0077
18,UAGUGACACACCUUCUACUGAGAGAUUAACA,0.00808 ± 0.0048
19,UAGUGUGUCACCUUCAGUGAGAGAUAUUGA,0.00442 ± 0.0042
20,UAGUGACUCACCUACUCUGAGAGAUUAUCA,0.121 ± 0.027
21,UAGUGAGUCACCUUCUCUGAGAGAUAAUCA,0.0322 ± 0.015
22,UAGUCUGUCACCUACACUGAGAGAUUAACA,0.114 ± 0.0093
23,UAGUGACAGUCCUUCACUGACAGAUUAACA,0.0159 ± 0.0049
24,UAGUGAGUCACCUUCUCAGAGAGAUUUUGA,0.0646 ± 0.027

row,Sequence,pre-steady-state target cleavage rate
1,UAGUCUGUCACCUUCUCUGACACAUUAACA,0.00428 ± 0.0031
2,UAGUGACAGUGGAAGAGACAAGAUUAACA,< 0.0001
3,UAGUGACAUACCUUCUCUGAGAGAUUAACA,0.0484 ± 0.0087
4,UAGUGACUCACCUACUGUGAGAGAUUAACA,0.086 ± 0.0083
5,UAGUGUGACACCUUCUCUGAGAGAUUAAGA,0.0535 ± 0.022
6,UAGUGAGUGACGUUCUCUGAGAGAUUAACA,0.112 ± 0.009
7,UAGUCUGUCACCUUCUCUGAGAGAUUAACC [g2:g26:cont:t1C],0.173 ± 0.013
8,UAGUGUGUCACUUCUCUGAGAGAUUAACA,0.115 ± 0.011
9,UAGUGACUCACCUUCUCUGAGACGAUUAACA,0.0396 ± 0.012
10,UAGUCUGUCUCCUUCUCUGAGAGUUUAACA,0.154 ± 0.025
11,UAGUGACUCACCUUCUCUGAGAGAUGAACA,0.0895 ± 0.018
12,UAGUGUGUCACCUUGACUGAGAGAUUAACA,0.059 ± 0.009
13,UAGUGACAGACCUUCUCUCAGAGUUUAACA,0.0105 ± 0.0056
14,UAGUCUAGUCACCUUCUCUGAGAGAUUAACA,0.233 ± 0.017
15,UAGUGACAGUGCUUCUGAGAGAGAUUAACA,0.00504 ± 0.0018
16,UAGUGACAGUCCUUCUGUGAGAGAUAAACA,0.00321 ± 0.0026
17,UAGUGUGUCACCUUCUCUGACAGAUUAUCA,0.00637 ± 0.0042
18,UAGUGACAGUGGAAGACUGAGAGAUUCACA,< 0.0001
19,UAGUCUGUCACCUUGUCUCAGAGAUUAACA,0.0236 ± 0.0053
20,UAGUGACUCACCUACUCUGACAGAUUAACA,0.019 ± 0.004
21,UAGUGACACACCUUAUCUGAGAGAUUAACA,0.136 ± 0.016
22,UAGUGUGUCACCUUCUCUGAGAGAUUGAACA,0.0931 ± 0.017
23,UAGUGAGUCACCUUCUCACUGAGAUUAACA,0.0178 ± 0.005
24,UAGUGUGUGACCUUCUCUGAGAGUUUAACA,0.0738 ± 0.021

row,Sequence,pre-steady-state target cleavage rate
1,UAGUGUGUGUGCUUCUCUGAGAGAUUAACA,0.0406 ± 0.011
2,UAGUCUGUCACCUUCUCUGUGAGAUUAUCA,0.0478 ± 0.013
3,UAGUGUCUCACCUUCUCUCAGAGAUUAACA,0.0446 ± 0.0082
4,UAGUGACAGACCUUCUCGGAGAGAUUAACA,0.0232 ± 0.0053
5,UAGUGACAGACCUUCUCUGAGAUAUUAACA,0.0283 ± 0.011
6,UAGUGACACACCAUCUCUGAGAGAUUAACA,0.0968 ± 0.007
7,UAGUGAGUGACCUUCUCUGAGAGAUUAUGA,0.0378 ± 0.011
8,UAGUCUGUCACCUUCUCUGAGAGAUAAUCA,0.036 ± 0.015
9,UAGUCUGUCACCUUCUCUGAGCGAUUAACA,0.0346 ± 0.0084
10,UAGUGACAGUCCUUCUCUGAGAGAUUGAACA,0.098 ± 0.014
11,UAGUCUGACACCUUCUCUCAGAGAUUAACA,0.0446 ± 0.0048
12,UAGUGACAGUCCUUCUCUGAGAAAUUAACA,0.0337 ± 0.0068
13,UAGUGACAGUGGAUCUCUGACAGAUUAACA,< 0.0001
14,UAGUGACUCACCUUUCUCUGAGAGAUUAACA,0.116 ± 0.0091
15,UAGUGACUCUGCUUCUCUGAGAGAUUAACA,0.0483 ± 0.0055
16,UAGUGACAGACCUUCUCACAGAGAUUAACA,0.00899 ± 0.005
17,UAGUGAGUCACCUUCUCUGAAGAUUAACA,0.00551 ± 0.0033
18,UAGUGUGUCACCUUCUCUGAGAGAUAAACA,0.148 ± 0.029
19,UAGUGUGUCACCUUCACUGAGAGAUAAACA,0.0773 ± 0.02
20,UAGUGACAGUGGAAGUCUGAGAGAUUACACA,< 0.0001
21,UAGUCAGUCACCAUCUCUGAGAGAUUAACA,0.171 ± 0.0086
22,UAGUGACAGACCUUCUCUGGGAGAUUAACA,0.104 ± 0.013
23,UAGUCUGUCACCAUCUGUGAGAGAUUAACA,0.0515 ± 0.0056
24,UAGUGACUCACCUUCUCUGAGACAUAAACA,0.00436 ± 0.0035

# Source: the supplement of paper PMC10338343
